# Laboratory results: PubChem BioAssay AID651820 (National Center for Advancing Translational Sciences (NCATS), 2012)
# About 12,000 (3.5%) of roughly 340,000 compounds were called active. This list was built around the results that the source calls inconclusive (neither active nor inactive); the mix of calls is not that of the screen. Calls come from the whole dose curve; as a rule, active = well fitted inhibition curve with a large enough effect; inconclusive = small, poorly fitted or top-dose-only effect, or another doubt; inactive = no such curve, though single readings can be large or run the other way. No potency is given beside an inconclusive call; the fits are too rough.
# Test: qHTS Assay for Inhibitors of Hepatitis C Virus (HCV)
# Conditions: Huh7.5.1 HCVcc-Cre (HCVcc is cell-culture hepatitis C virus) infection, luciferase reporter, 44 h; activity change, negative = inhibition: at 41.8 µM (top of the series) unless noted
# Procedure, shortened: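 Luciferase read-out (15 sec integration) after a 15 min room-temperature substrate step quantifies HCVcc-Cre infection. Cells, 1,000 per well, had compound added 4 h post-plating, then virus at ~0.5 moi, and were cultured 44 h.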
# % is set by controls: 0 for no effect and ±100 for the full control effect; potency is the fitted concentration of half-maximal effect; tags give direction and shape of the fitted curve.
Compound,Potency,"activity change, negative = inhibition"
COC(=O)[C@H](Cc1ccccc1)N1C/C=C\COc2c(Cl)cc(Cl)cc2S1(=O)=O,"inconclusive [inhibitor, partial curve]",–
COc1ccc(C)cc1NC(=O)c1ccc(N(C)S(C)(=O)=O)cc1,"inconclusive [inhibitor, partial curve, poor fit]",–
Cc1ccccc1Nc1scc(-c2ccc(Cl)cc2)[n+]1-c1ccccc1C,–,inactive: -6.59%
Cc1ccc2c(c1)COc1c3ccc(C(=O)N[C@@H](C)CO)cc3nn1-2,"inconclusive [inhibitor, full curve]",–
COc1ccc2nc(C)cc(N3CC(C)OC(C)C3)c2c1 (stereo not given),"inconclusive [inhibitor, full curve, poor fit]",–
COc1ccc(C(=O)N(Cc2nc(-c3ccc(C)cc3)no2)C2CCCCC2)cc1OC,"inconclusive [inhibitor, single point]",–
Fc1ccc(CN2CCN(c3ncnc4scc(-c5ccccc5)c34)CC2)cc1,"inconclusive [inhibitor, single point]",–
Cc1ccc(C)c(OCC(O)CN2CCN(CCN3C(=O)c4cccc5cccc(c45)C3=O)CC2)c1 (stereo not given),"inconclusive [inhibitor, partial curve]",–
CCOc1c2c(nc3ccc(Cl)cc13)CCC2,"inconclusive [inhibitor, single point]",–
O=C(NC1CN2CCC1CC2)c1cc(Cl)c([N+](=O)[O-])c2nc[nH]c12 (stereo not given),"inconclusive [inhibitor, single point]",–
CC1CCc2sc(C(=O)NCC(c3ccco3)N3CCCCC3)cc2C1 (stereo not given),"inconclusive [inhibitor, single point]",–
COc1ccc(Cl)cc1Nc1nc2ccc(C)cc2n2cnnc12,"inconclusive [inhibitor, full curve]",–
COc1ccccc1NC(=O)CN1C(=O)CSC(C)C1=O (stereo not given),–,inactive: -0.641%
COCCn1c(C)cc(C(=O)CN2c3cccc4cccc(c34)S2(=O)=O)c1C,"inconclusive [inhibitor, full curve, poor fit]",–
CN1CCN(CCCNC(=O)c2ccc3c(c2)N(Cc2ccccc2)CCS3)CC1,"inconclusive [inhibitor, partial curve]",–
O=C(c1ccco1)N1CCN(c2ncnc3c2cnn3-c2ccccc2)CC1,–,inactive: -12.1%
Cc1nc2sc(C(=O)c3ccccc3)c(N)c2c2c1CCCC2,active: 25.1 µM,–
Cc1nc2sc(C(=O)Nc3ccccc3Cc3ccccc3)c(C)c2c(=O)[nH]1,–,inactive: -6.99%
COc1ccccc1-c1cc(C(F)(F)F)n2ncc(C(=O)N3CCc4ccccc4C3)c2n1,active: 11.2 µM,–
O=C(Nc1cccc(S(=O)(=O)Nc2ccc(Cl)cc2)c1)c1ccccn1,"inconclusive [inhibitor, single point]",–
N#CCSc1nc(-c2ccccc2)nc2ccccc12,"inconclusive [inhibitor, single point]",–
COc1ccc(N=C(c2ccccc2)c2c(C)[nH]n(-c3ccccc3)c2=O)c(OC)c1,"inconclusive [inhibitor, full curve, poor fit]",–
O=C(CSc1cccs1)Nc1ccc2ccccc2c1,–,inactive: -26%
COc1ccc(C(=O)CC(=O)c2ccccc2)cc1,–,inactive: -9.58%

Compound,Potency,"activity change, negative = inhibition"
Nc1cc2c(cc1Cl)-c1ccccc1C2,"inconclusive [inhibitor, single point]",–
O=C(CCC(=O)N(Cc1ccco1)C(C(=O)NC1CCCC1)c1ccncc1)Nc1cccnc1 (stereo not given),–,inactive: 23.4%
Clc1ccc(C(OCCN2CCCCC2)c2ccccc2)cc1 (stereo not given),"inconclusive [inhibitor, partial curve]",–
CCOc1ccc2nc(NCCNC(=O)C(C)C)c(C)cc2c1,"inconclusive [inhibitor, single point]",–
O=C(COC(=O)CC1CCCC1)Nc1cc2c(cc1Cl)C(=O)c1ccccc1C2=O,"inconclusive [inhibitor, full curve, poor fit]",–
Cc1ccc2nc(N3CC(=O)Nc4ccccc43)nc(-c3ccccc3)c2c1,"inconclusive [inhibitor, partial curve]",–
O=C1c2ccccc2C(=O)c2c1ccc(C(=O)N1CCCCC1)c2NCCO,–,inactive: 7.96%
COc1ccc(NC(=O)c2cc(S(=O)(=O)Nc3ccc(OC)cc3)cs2)cc1,"inconclusive [inhibitor, partial curve]",–
COc1ccc(CNCC(O)(c2ccccc2)c2ccccc2)cc1OC,"inconclusive [inhibitor, partial curve]",–
C/C(=N\Nc1nc(-c2ccccc2O)nc2ccccc12)c1ccccc1,–,inactive: -3.53%
CCn1cc(/C=c2/sc3n(c2=O)C2c4ccccc4OC(C)(N=3)C2C(=O)OC)c(C)n1 (stereo not given),"inconclusive [inhibitor, single point]",–
Cc1ccccc1NC(=O)CSc1nc2ccccc2c(=O)n1C,active: 3.16 µM,–
CNc1ccccc1C(C)(C)c1cc(-c2cccc(OC)c2)no1,"inconclusive [inhibitor, single point]",–
Cc1ccc(-c2ccc(SCC(=O)Nc3ccc4c(c3)OCCO4)nn2)cc1,"inconclusive [inhibitor, partial curve]",–
COc1cc(NC(=O)c2ccc(S(=O)(=O)N(C)c3ccccc3)cc2)cc(OC)c1,active: 11.2 µM,–
NC(=O)c1c(NC(=O)Cn2cnc([N+](=O)[O-])n2)sc2c1CCCC2,–,inactive: 2%
COc1ccc(C(CNC(=O)c2ccc(NS(=O)(=O)c3ccc4c(c3)OCCO4)cc2)N(C)C)cc1 (stereo not given),"inconclusive [inhibitor, single point]",–
CC1CCC(C(=O)c2c(O)c3ccccc3oc2=O)CC1 (stereo not given),"inconclusive [inhibitor, single point]",–
Cc1ccc(C(=O)CN(CCCC(N)=O)S(=O)(=O)c2ccc([N+](=O)[O-])cc2)cc1,–,inactive: 6.36%
COc1ccc(NC(=O)CSCC(=O)Nc2ccc(S(=O)(=O)N3CCOCC3)cc2)cc1,"inconclusive [inhibitor, full curve]",–
CCc1cc2c(=O)c(-c3ccc4c(c3)OCCO4)c(C)oc2cc1OS(C)(=O)=O,"inconclusive [inhibitor, full curve]",–
COc1cc(-c2csc(N3CCOCC3)n2)cc(OC)c1OC,–,inactive: -8.78%
O=C(COc1ccc(Br)cc1CNCCc1ccccc1)NCc1ccccc1,"inconclusive [inhibitor, single point]",–
CCCCCCCCC1=NCCc2c1[nH]c1ccccc21,"inconclusive [inhibitor, single point]",–

Compound,Potency,"activity change, negative = inhibition"
O=C(/C=C/c1ccccn1)c1cc(Cl)cc(Cl)c1O,active: 12.6 µM,–
O=[N+]([O-])c1ccc(N2CCCC2)c2ncccc12,"inconclusive [inhibitor, single point]",–
C[C@@H](NC(=O)c1nc[nH]c1C(=O)N[C@@H](CCCCNC(=O)OC(C)(C)C)C(=O)OC(C)(C)C)c1ccccc1,"inconclusive [inhibitor, single point]",–
CC(C)Cc1nnc(NC(=O)CCC(=O)Nc2ccccc2)s1,–,inactive: 7.49%
CC1CCc2cc(F)ccc2N1C(=O)CSc1nnc2c3ccccc3n(C)c2n1 (stereo not given),"inconclusive [inhibitor, full curve, poor fit]",–
O=C(NCc1ccccc1)c1cccc(COc2ccc(Cl)cc2)c1,"inconclusive [inhibitor, partial curve]",–
COc1ccc(C2C(C(=O)O)CCC(=O)N2c2ccc(C)cc2)cc1OC (stereo not given),–,inactive: 23.3%
Oc1ccc(/C=N/Nc2ccccc2)cc1,–,inactive: -20.6%
COc1cccc(Cn2cc(-c3cccc(C(F)(F)F)c3)nn2)c1,–,inactive: -34.1%
CCOC(=O)c1ccc(NC(=O)CN2CCN(C(=O)C3CCCO3)CC2)cc1 (stereo not given),–,inactive: 11.9%
COc1ccc(Cn2c(C)c(C)c(C#N)c2NC(=O)Nc2ccc(Cl)cc2)cc1,"inconclusive [inhibitor, partial curve]",–
Nc1ccc(N2CCCC2)c(S(=O)(=O)Nc2cccc(C(F)(F)F)c2)c1,"inconclusive [inhibitor, partial curve]",–
CCCCNC1CCS(=O)(=O)C1 (stereo not given),"inconclusive [inhibitor, single point]",–
O=C(Cn1ccc(NC(=O)OCc2ccccc2)nc1=O)NCc1ccc2c(c1)OCO2,–,inactive: 4.04%
COC(=O)c1ccccc1C(=O)c1ccc2c(c1)NC(=O)CO2,–,inactive: -16.2%
COc1ccc(F)c(CN2CCC(N3CCC(C(=O)N4CCOCC4)CC3)CC2)c1,–,inactive: 20.1%
CN(C)c1ccc(NC(=O)/C=C/c2ccccc2Cl)cc1,"inconclusive [inhibitor, partial curve, poor fit]",–
CCOC(=O)N1CCC(Nc2c(Nc3cccc(CC)c3)c(=O)c2=O)CC1,"inconclusive [inhibitor, partial curve]",–
O=C(N/N=C/c1cccc(Oc2ccccc2)c1)c1ccccc1Br,active: 11.2 µM,–
O=C(NCC(O)c1ccccc1)c1ccc(Cl)c(S(=O)(=O)N2CCCC2)c1 (stereo not given),"inconclusive [inhibitor, single point]",–
COC(=O)c1ccc(OC)c(CSc2nnc(COc3ccc(OC)cc3)o2)c1,"inconclusive [inhibitor, single point]",–
CSCCC(NC(=O)c1ccccc1Br)C(=O)N1CCN(C/C=C/c2ccccc2)CC1 (stereo not given),"inconclusive [inhibitor, single point]",–
